In PubChem BioAssay AID1508624 (National Center for Advancing Translational Sciences (NCATS), 2021):
Among all 48,000 compounds or so, about 120 (0.25%) were called active. Inconclusive results (about 4%) are left out. Calls come from the whole dose curve; as a rule, active = well fitted activation curve with a large enough effect; inconclusive = small, poorly fitted or top-dose-only effect, or another doubt; inactive = no such curve, though single readings can be large or run the other way. The list shows a part of the results.

Experiment: Primary qHTS for Identification of Small Molecule Activators of Huntingtin-Antisense Promoter Activity; note: nearly all actives have a fitted effect of over 55% in size
Settings: HEK293 HTT-AS promoter firefly luciferase reporter, 24 h
Procedure, shortened: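 Firefly luciferase readout (Dual-Glo, 10 min RT) after 24 h, 37 °C compound exposure (final up to 57.5 uM) of HEK293 reporter cells cultured 24 h beforehand; PTC124 at 50 uM final as control inhibitor; activity scaled vehicle 0%, zero RLU -100%.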

[1] = at 57.5 µM (top of the series) unless noted

In the case of Cc1c(C(=O)c2cccc3ccccc23)c2cccc3c2n1[C@H](CN1CCOCC1)CO3, the activity change, positive = activation [1] is reported as inactive: -30.6%.
In the case of O=S1(=O)N(Cc2ccccc2)CCCN1Cc1ccc(F)cc1Cl, the activity change, positive = activation [1] is reported as inactive: -27.2% [at 57.5 µM, percent change from vehicle, -100% = no light].
In the case of O=C(Nc1ccc(Br)cc1C(=O)c1ccccc1)c1ccccc1, the activity change, positive = activation [1] is reported as inactive: -11.1% [at 57.5 µM, percent change from vehicle, -100% = no light].
In the case of CC(=CCCC1=CCC(C2=CC(=O)OC2O)OC1O)CCC1=C(C)CCCC1(C)C (centres undefined), the activity change, positive = activation [1] is reported as inactive: -15.5%.
With CC(CCc1ccccc1)NC(C)C(O)c1ccc(O)cc1 (centres undefined) the activity change, positive = activation [1] was inactive: -16.8%.
For CCCOC(=O)Cc1ccc(OCC(=O)N(CC)CC)c(OC)c1, the activity change, positive = activation [1] was inactive: -3.28%.
With OCCCBr the activity change, positive = activation [1] was inactive: -5.38% [at 116 µM].
For CC[C@@]1(O)C(=O)OCc2c1cc1n(c2=O)Cc2cc3ccccc3nc2-1, the activity change, positive = activation [1] was inactive: -34%.
In the case of CCCOC(=O)c1cncn1C(C)c1ccccc1 (centres undefined), the activity change, positive = activation [1] is reported as inactive: -1.31%.
With CN(C)CCc1c[nH]c2ccc(O)cc12 the activity change, positive = activation [1] was inactive: -9.68% [at 116 µM].
In the case of CCOC(=O)c1ccc(NC(=O)c2sc3nc4c(cc3c2N)N2CCC4CC2)cc1, the activity change, positive = activation [1] is reported as inactive: -42.8%.
For CCCC[N+]1(C)[C@@H]2CC(OC(=O)[C@H](CO)c3ccccc3)C[C@H]1[C@@H]1O[C@@H]12 (some centres undefined), the activity change, positive = activation [1] was inactive: -0.073%.
With CCNC(=O)C[C@@H]1N=C(c2ccc(Cl)cc2)c2cc(OC)ccc2-n2c(C)nnc21 the activity change, positive = activation [1] was inactive: -17.9%.
In the case of Cc1cc(C)cc(OCC(=O)Nc2ccc(Cl)cc2C(=O)c2ccccc2)c1, the activity change, positive = activation [1] is reported as inactive: -5.83% [at 57.5 µM, percent change from vehicle, -100% = no light].
In the case of Oc1c(Br)cc(Br)cc1Br, the activity change, positive = activation [1] is reported as inactive: -0.297%.
In the case of COc1cc([C@@H]2c3cc4c(cc3[C@@H](O)C3COC(=O)C32)OCO4)cc(OC)c1O (some centres undefined), the activity change, positive = activation [1] is reported as inactive: -29.8%.
For NCCc1cc(O)c(O)cc1O, the activity change, positive = activation [1] was inactive: -0.172%.
In the case of NNc1ccccc1, the activity change, positive = activation [1] is reported as inactive: -7.68% [at 57.5 µM, percent change from vehicle, -100% = no light].
In the case of COc1ccc(OCC(=O)N2CCN(Cc3cccc(OC)c3OC)CC2)cc1, the activity change, positive = activation [1] is reported as inactive: -21.8% [at 57.5 µM, percent change from vehicle, -100% = no light].
In the case of CN1CCN(c2ccc([N+](=O)[O-])c3no[n+]([O-])c23)CC1, the activity change, positive = activation [1] is reported as inactive: -20.8%.
In the case of CCCN(CCC)C(=O)Cc1c(-c2ccc(Cl)cc2)nc2ccc(Cl)cn12, the activity change, positive = activation [1] is reported as inactive: 2.93%.
With Clc1cccc(N2CCNCC2)c1 the activity change, positive = activation [1] was inactive: -7.49%.
With Clc1ccc(CSC(Cn2ccnc2)c2ccc(Cl)cc2Cl)cc1 (centres undefined) the activity change, positive = activation [1] was inactive: -40%.
With CC(C)=CC1C(C(=O)OCN2C(=O)C3=C(CCCC3)C2=O)C1(C)C (centres undefined) the activity change, positive = activation [1] was inactive: -26.7%.
For Cc1ncc(CNC(=O)N(CCCl)N=O)c(N)n1, the activity change, positive = activation [1] was inactive: -6.1%.
With COc1cc(C[C@@H](C)N)c(OC)cc1C the activity change, positive = activation [1] was inactive: -18.6% [at 116 µM].
With Cc1cccc2sc(NC(=O)c3cccn(Cc4ccccc4)c3=O)nc12 the activity change, positive = activation [1] was inactive: -12.4%.
In the case of O=C(CN1C(=O)CN=C(c2ccccc2)c2ccccc21)Nc1cccc(C(F)(F)F)c1, the activity change, positive = activation [1] is reported as inactive: -28.1%.
With CCCC1=Nc2cc(C(=O)NC3CCC(C)CC3)ccc2Sc2ccccc21 (centres undefined) the activity change, positive = activation [1] was inactive: -33.7%.
For CC(C)(O)C=CC(=O)[C@](C)(O)[C@H]1[C@H](O)C[C@]2(C)[C@@H]3CC=C4[C@@H](C=C(O)C(=O)C4(C)C)[C@]3(C)C(=O)C[C@@]12C, the activity change, positive = activation [1] was inactive: -82%.
In the case of COc1cccc2c1[C@]13CCN(CC4CC4)[C@H](C2)[C@]1(OC)CCC(=O)C3, the activity change, positive = activation [1] is reported as inactive: -3.73%.
For CC(C)(C)NCC(O)c1cc(Cl)c(N)c(C(F)(F)F)c1 (centres undefined), the activity change, positive = activation [1] was inactive: -4.68%.
With Cc1cc(NC(=O)c2cccn(Cc3ccccc3)c2=O)no1 the activity change, positive = activation [1] was inactive: 17.3% [at 57.5 µM, percent change from vehicle, -100% = no light].
With Nc1c(C(=O)Nc2cccc(Br)c2)sc2nc3c(cc12)N1CCC3CC1 the activity change, positive = activation [1] was inactive: -24.5%.
For c1cc2ccc3cccc4ccc(c1)c2c34, the activity change, positive = activation [1] was inactive: 3.17% [at 116 µM, percent change from vehicle, -100% = no light].
For CCC1(c2ccccc2)CCC(=O)NC1=O (centres undefined), the activity change, positive = activation [1] was inactive: -3.63%.
With C[C@@H]1CC[C@@]2(OC1)O[C@H]1C[C@H]3[C@@H]4CC=C5C[C@@H](O[C@@H]6O[C@H](CO)[C@@H](O[C@@H]7O[C@@H](C)[C@H](O)[C@@H](O)[C@@H]7O)[C@H](O)[C@@H]6O[C@@H]6O[C@@H](C)[C@H](O)[C@@H](O)[C@@H]6O)CC[C@]5(C)[C@@H]4CC[C@]3(C)[C@@H]1[C@H]2C the activity change, positive = activation [1] was inactive: -15.4%.
For Oc1ccc2c3c1O[C@H]1c4[nH]c5c(c4C[C@@]4(O)[C@@H](C2)N(CC2CC2)CC[C@]314)C[C@@]1(O)[C@H]2Cc3ccc(O)c4c3[C@@]1(CCN2CC1CC1)[C@H]5O4, the activity change, positive = activation [1] was inactive: -3.41%.
For COc1ccc2c3c1O[C@H]1[C@@H](O)C=C[C@H]4[C@@H](C2)N(C)CC[C@@]341, the activity change, positive = activation [1] was inactive: -28.5% [at 116 µM].
In the case of CCCCC(CC)COC(=O)c1ccccc1C(=O)OCC(CC)CCCC (centres undefined), the activity change, positive = activation [1] is reported as inactive: -0.555% [at 116 µM].
For Oc1ccc(Cl)cc1Cc1ccccc1, the activity change, positive = activation (at 57.5 µM (top of the series)) was inactive: -16.8% and the activity change, positive = activation (at 116 µM (top of the series)) was inactive: -35.2%.
With c1ccc(N2CCNCC2)cc1 the activity change, positive = activation [1] was inactive: -3.52%.
For CC1=C(O)C(=O)C=C2C1=CC=C1[C@@]2(C)CC[C@@]2(C)[C@@H]3C[C@](C)(C(=O)O)CC[C@]3(C)CC[C@]12C, the activity change, positive = activation [1] was inactive: -93.1%.
With CCN(CC)C(=O)c1ccc(NC(=O)CCn2nc(-c3ccc(C)cc3)c3ccccc3c2=O)cc1 the activity change, positive = activation [1] was inactive: -40.6%.
For Cc1cc(OCC(=O)N2CCN(CCc3ccccn3)CC2)cc(C)c1Cl, the activity change, positive = activation [1] was inactive: -4.19%.
In the case of Oc1cccc2cccnc12, the activity change, positive = activation (at 57.5 µM (top of the series)) is reported as inactive: -2.51% and the activity change, positive = activation (at 116 µM (top of the series)) is reported as inactive: -34.5%.
For CCOc1ccc(CN(CCc2ccc3c(c2)OCO3)Cc2cccc(C)c2)cc1, the activity change, positive = activation [1] was inactive: -22.6%.
